# Assay results taken from PubChem BioAssay AID938 (National Center for Advancing Translational Sciences (NCATS), 2007).
# Several values for one entry are separate records, joined by “and”; a condition that tells them apart may be missing. Equal entries are not always repeated. Hit rate of the full screen: of about 73,000 compounds, about 1,800 (2.5%) were called active. Inconclusive means that the source gave no clear call. Such entries were picked first, then a sample of the others. The call rests on the fitted dose curve; in most records, active means well fitted activation curve with a large enough effect; inconclusive means small, poorly fitted or top-dose-only effect; inactive means no such curve, though single readings can be large or run the other way. No potency is given beside an inconclusive call; the fits are too rough. The source holds several records for some structures; these can differ, active in one and inactive in another.
# Test: qHTS Assay for Agonists of the Thyroid Stimulating Hormone Receptor: Activators of Intracellular cAMP Concentrations in Parental HEK 293; further: nearly all actives have a fitted effect of over 55% in size; on activation: % of control where 0% means no effect
# Settings: parental HEK293 CNG cAMP sensor, membrane potential fluorescence; activation: at 57.1 µM (top of the series) unless noted
# How it was run: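 Parental HEK 293 cells stably expressing a cAMP-gated CNG channel were loaded with membrane potential dye containing 100 uM RO 20-1724 for 60 min. Compound added for 30 min; depolarization read as fluorescence intensity at 590 nm.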
# Potency means the concentration at half of the fitted maximal effect; tags describe the fitted curve by direction and shape.
SMILES,Potency,activation
COc1ccccc1CN1CC2(CCN(C(=O)c3cc(C(F)(F)F)cc(C(F)(F)F)c3)CC2)C1,"inconclusive [activator, partial curve]",
Cc1c(-c2ccc(F)cc2)nc(N)c(C#N)c1-c1ccco1,,inactive: 8.41%
CN1CCc2nc(-c3ccccc3)c(-c3ccccc3)cc2C1,,inactive: 0.173% [at 11.4 µM]
COc1cc2c(cc1O)[C@@H](c1cc(O)c(O)c(OC)c1)[C@@](O)(C(=O)O)[C@@H](CO)[C@@H]2O,,inactive: -4.04% [at 11.4 µM]
Cc1ccc(Cl)cc1N(CC(=O)NC1CCCCC1)S(C)(=O)=O,"inconclusive [activator, partial curve]",
COCCn1c(=O)c(-c2ccccc2)nc2cnc(Oc3ccccc3)nc21,"inconclusive [activator, full curve, poor fit]",
Clc1ccc2c(NCCNC3CCCCC3)ccnc2c1,"inconclusive [activator, single point]",
Cn1c(SCC(=O)N2c3ccccc3Sc3ccc(Cl)cc32)nnc1-c1ccco1,"inconclusive [activator, single point]",
CC(=O)C1=C(O)C(=O)N(c2nnn(C)n2)C1c1cccs1 (stereo not drawn),"inconclusive [activator, single point]",
O=C(OCc1cccc2ccccc12)c1ccc2c(=O)[nH]c(CN3CCOCC3)nc2c1,"inconclusive [activator, single point]",
CCC(c1nnnn1Cc1ccccc1)N1CCN(C(=O)c2ccco2)CC1 (stereo not drawn),"inconclusive [activator, partial curve, poor fit]",
COc1cc(OC)cc(C(=O)OCc2cc3ccccc3[nH]c2=O)c1,"inconclusive [activator, partial curve]",
Cn1c(=O)c(-c2ccc(Cl)cc2)nc2cnc(Oc3cccc(Cl)c3)nc21,,inactive: 9.11%
C#C[C@@]1(O)CC[C@@H]2[C@@H]3CCC4=C(CCC(=O)C4)[C@H]3CC[C@]21C,"inconclusive [activator, single point]",
CC(=O)N1CCN(c2ccc(NCc3ccc(F)cc3)cc2)CC1,,inactive: 3.03%
CCOc1ccc2cc(C#N)c(SCC(=O)N3CCOCC3)nc2c1,,inactive: 10.1%
O=C(NC(=O)c1ccc(Cl)c(Cl)c1)OC1CCS(=O)(=O)C1 (stereo not drawn),,inactive: 17.7%
O=C(NC1CCS(=O)(=O)C1)c1cccc(S(=O)(=O)N2CCCCC2)c1 (stereo not drawn),"inconclusive [activator, partial curve]",
Cc1noc(C)c1C(=O)N1CCC2(CCN(Cc3ccccc3)CC2)CC1,,inactive: -2.81%
CCOC(=O)c1c(C)n(C)c2ccc(OC)c(NS(=O)(=O)c3ccc(Cl)s3)c12,"inconclusive [activator, partial curve]",
CN(C(=O)c1cnccn1)c1nnc(-c2cccnc2)s1,"inconclusive [activator, single point]",
CC(C)(Oc1ccc(Cl)cc1)C(=O)N1CCN(c2ccccn2)CC1,"inconclusive [activator, partial curve]",
OC(COc1c(F)cc(Br)cc1F)CN1CCN(c2ccc(F)cc2)CC1 (stereo not drawn),"inconclusive [activator, single point]",

SMILES,Potency,activation
CCOC(=O)c1cnn2c(C(F)(F)F)cc(-c3cn(C)nc3C)nc12,,inactive: 2.23%
CCc1ccc(S(=O)(=O)NCc2csc(-c3ccccc3)n2)s1,"inconclusive [activator, single point]",
CC(C)NC[C@H]1CCc2cc(CO)c([N+](=O)[O-])cc2N1,,inactive: 2.27% [at 25.6 µM]
FC(F)(F)c1cc(-c2ccco2)nc(-n2nnc3ccccc32)n1,active: 25.1 µM,
C=CCSc1nc2ccccc2n1Cc1nnc(-c2cccs2)o1,"inconclusive [activator, single point]",
CN1CCN(CCCNC(=O)c2cn(C)c3ccc(S(=O)(=O)N(C)C)cc3c2=O)CC1,"inconclusive [activator, single point]",
CCN(CC)S(=O)(=O)c1ccc2c(c1)nc(CCC(=O)OCc1c(C)noc1C)n2C,"inconclusive [activator, single point]",
COc1ccc2[nH]cc(CCNc3ncncc3-c3ccccc3Cl)c2c1,"inconclusive [activator, single point]",
O=C(C1CCC1)N1CCc2cc(S(=O)(=O)Nc3ccc4c(c3)OCCO4)ccc21,"inconclusive [activator, single point]",
COc1ccc(C(=O)CSc2nnc(-c3cnccn3)n2Cc2ccco2)cc1,"inconclusive [activator, partial curve]",
COc1nc(C)ccc1-c1noc(-c2ccccn2)n1,,inactive: 4.1%
O=C(Cc1cc(=O)[nH]c(=O)[nH]1)N1CCN(C(=O)c2ccco2)CC1,"inconclusive [activator, single point]",
Cc1ccc(OC[C@H](O)[C@H](C)NC(C)C)c2c1CCC2,inactive and active: 39.8 µM,
CN1CCc2c(cc(O)c(O)c2Cl)[C@H](c2cccc(Cl)c2)C1,"inconclusive [activator, single point]",
COC(=O)[C@@]1(Cc2ccc(F)cc2)[C@H]2c3cc(C(=O)N(C)C)n(Cc4ccccc4)c3C[C@H]2CN1C(=O)c1ccccc1,active: 10 µM,
O=S(=O)(c1cccc(-c2csc(-c3cccnc3)n2)c1)N1CCCCC1,"inconclusive [activator, single point]",
Fc1cccc2sc(N3CCCCC3)nc12,"inconclusive [activator, partial curve]",
COc1ccc(-c2nnc(CSc3ncnc4sc5c(c34)CCC5)o2)cc1OC,"inconclusive [activator, partial curve]",
Cc1nc(SCC(=O)CC(=O)OC(C)C)c(C#N)c(C)c1C,"inconclusive [activator, single point]",
C=CCSc1nc2c(c(=O)[nH]1)C(C(C)C)C(C#N)=C(N)O2 (stereo not drawn),"inconclusive [activator, single point]",
CCn1nc(C(=O)OCc2c(C)noc2C)c2ccccc2c1=O,,inactive: 9.32%
COc1ccc2[nH]cc(CCNc3ncncc3-c3ccccc3C(F)(F)F)c2c1,"inconclusive [activator, single point]",
CN(C)c1cc(-c2cccc(NS(C)(=O)=O)c2)ncn1,"inconclusive [activator, single point]",

SMILES,Potency,activation
COc1nc(-c2ccccc2)ccc1-c1noc(-c2cccnc2)n1,"inconclusive [activator, single point]",
O=C(Nc1ncnc2sc3c(c12)CCCCC3)c1ccco1,"inconclusive [activator, single point]",
CCN(CCCNC(=O)CCc1nc(-c2ccc(OC)cc2)no1)c1cccc(C)c1,,inactive: 18.4%
Cc1n[nH]c(C)c1S(=O)(=O)N(CC(=O)N1CCc2ccccc21)c1ccc(C(C)C)cc1,,inactive: 10.5%
CCOC(=O)C1CCN(C(=O)C2(NC(=O)Nc3ccccc3Cl)CCCCC2)CC1,"inconclusive [activator, partial curve]",
Cc1cccc(CNc2ncncc2-c2cccc(C#N)c2)c1,,inactive: 11.1%
CCCc1nc(N)c(C#N)c(-c2ccco2)c1CC,"inconclusive [activator, partial curve]",
COC(=O)Nc1nc2c(s1)CCCC2,"inconclusive [activator, single point]",
COC(=O)C1(CC(C)C)C=C2C(=C(C(C)C)C(=O)C2C)CN1 (stereo not drawn),"inconclusive [activator, full curve]",
COC(=O)N1[C@H](C)C=C[C@]1(Cc1ccccc1)C(=O)NCCCNc1ncc(C(F)(F)F)cc1Cl,"inconclusive [activator, single point]",
Cc1ccc2nc(-c3ccc4c(c3)OCCO4)cc(C(=O)O)c2c1,,inactive: -3.29%
COc1ccc(Cc2nn3c(-c4ccccc4OC)nnc3s2)cc1,"inconclusive [activator, single point]",
COc1ccc(Cn2nnnc2CN2CCc3ccccc32)cc1,"inconclusive [activator, single point]",
Cc1ccc(Cn2c(SCC(C)C)nc3c2c(=O)n(C)c(=O)n3C)cc1,active: 25.1 µM,
Cc1cc(C(=O)N2CC(C)CC(C)C2)n(-c2ccccc2)n1 (stereo not drawn),"inconclusive [activator, partial curve]",
c1ccc(OCCOc2ncnc3ccccc23)cc1,"inconclusive [activator, single point]",
CC(=O)c1c(N2CCN(Cc3ccccc3)CC2)[nH]c(-c2ccccc2)nc1=S,"inconclusive [activator, single point]",
COc1ccc(Cn2c(SCC(=O)NCc3ccco3)nc3ccsc3c2=O)cc1,"inconclusive [activator, partial curve]",
CCCOc1ccc(C(=O)CCN2CCCCC2)cc1,"inconclusive [activator, single point]",
CCn1c(C(=O)N2CCC(C(=O)N3CCN(c4ccccn4)CC3)CC2)cc2sccc21,"inconclusive [activator, partial curve]",
Cc1ccn2cc(C(=O)Nc3ccccc3N3CCOCC3)nc2c1,,inactive: 24.6%
COCCNC(=O)C(c1ccc(C)o1)N(Cc1ccc(F)cc1)C(=O)Cn1nnc2ccccc21 (stereo not drawn),"inconclusive [activator, single point]",
